Some of the results follow. At the low end of the ranking the order means little.

The assay concerns the target GST-SBP-SLBP (stem-loop binding protein) (UniProt Q14493). The experiment in a line: targeted RNA Bind-n-Seq.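 Further: DESeq read counts versus GST-SBP nonspecific binding control pulldown.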 The note with it: RBNS binding buffer: 25 mM Tris pH 7.5, 150 mM KCl, 3 mM MgCl2, 0.1% Tween, 0.5 mg/mL BSA, 1 mM DTT; 27 nM protein, 750 pM RNA pool; temperature not stated; high values mean tight binding.
As to “GGUCACGUCUCAAUCAACUCAACUUCCAGGGAAAACCCUGGCAUUCUCAACAGCUCGCAGUCAAG”, the binding signal (log2 fold change) was 0.00666. As to “GGUCACGUCUCAAUCAACUCAGUCUCCAGGGAAAACCCUGGUAAAUUCAACAGCUCGCAGUCAAG”, the binding signal (log2 fold change) was 0.213. Turning to “GGUCACGUCUCAAUCAACUCAGUCCCCAGGGAAAGCCCUGGUUUAUUCAACAGCUCGCAGUCAAG”, the binding signal (log2 fold change) was -0.457.

With “GGUCACGUCUCAAUCAACUCAACUCCAGGAGUUUCCUCCUGUUUUUUCAACAGCUCGCAGUCAAG”, the binding signal (log2 fold change) was -0.179. Turning to “GGUCACGUCUCAAUCAACUCAACUGAGGGGGGGAAAACCCCUUUACCCUCCAAAUCAACAGCUCGCAGUCAAG”, the binding signal (log2 fold change) was determined as 0.448.

“GGUCACGUCUCAAUCAACUCUUCCCCCAGGGAAAUCCCUGGCUUUCUCAACAGCUCGCAGUCAAG”: the binding signal (log2 fold change) was -0.32. Consider “GGUCACGUCUCAAUCAACUCAUUCUCAGGAGUUUUCUCCUGUAAUCUCAACAGCUCGCAGUCAAG”, for which the binding signal (log2 fold change) is -0.026. “GGUCACGUCUCAAUCAACUCUUCGGAGGGGGGGAAAACCCCUUUACCCUCACCAUCAACAGCUCGCAGUCAAG”: the binding signal (log2 fold change) was -0.358. For “GGUCACGUCUCAAUCAACUCAUUCCCCAGGGAAAACCCUGGCAUAUUCAACAGCUCGCAGUCAAG”, the binding signal (log2 fold change) is 0.109. For “GGUCACGUCUCAAUCAACUCCAACGAGGGGGGGAAAACCCCUUUACCCUCCAUUUCAACAGCUCGCAGUCAAG”, the binding signal (log2 fold change) was -0.102.

For the sequence “GGUCACGUCUCAAUCAACUCUUUUUCCAGGGAAAGCCCUGGCUUACUCAACAGCUCGCAGUCAAG”, the binding signal (log2 fold change) was -0.189. Regarding “GGUCACGUCUCAAUCAACUCACACGAGGGGGGGAAAACCCCUUUACCCUCCAAUUCAACAGCUCGCAGUCAAG”, the binding signal (log2 fold change) was -0.129. To “GGUCACGUCUCAAUCAACUCUCCAGAGGGGGGGAAAACCCCUUUACCCUCCACUUCAACAGCUCGCAGUCAAG” belongs -0.0243. As for “GGUCACGUCUCAAUCAACUCAUCCCCAGGAGUUUUCUCCUGUAAUCUCAACAGCUCGCAGUCAAG”, the binding signal (log2 fold change) was -0.0274. The result for “GGUCACGUCUCAAUCAACUCCAUAGAGGGGGGGAAAACCCCUUUACCCUCGAAAUCAACAGCUCGCAGUCAAG” reads -0.308; that for “GGUCACGUCUCAAUCAACUCAAUUUCCAGGGAAAACCCUGGCUUUCUCAACAGCUCGCAGUCAAG”, 0.224. Take “GGUCACGUCUCAAUCAACUCAUCAGAGGGGGGGAAAACCCCUUUGCCCUCAAUUUCAACAGCUCGCAGUCAAG”: the binding signal (log2 fold change) is -0.252. For “GGUCACGUCUCAAUCAACUCUAAAGAGGGGGGGAAAACCCCUUUGCCCUCAUCGUCAACAGCUCGCAGUCAAG”, the binding signal (log2 fold change) was -0.195. Consider “GGUCACGUCUCAAUCAACUCAACUUCAGGAGUUUUCUCCUGUUAACUCAACAGCUCGCAGUCAAG”, for which the binding signal (log2 fold change) is -0.0978.

On to “GGUCACGUCUCAAUCAACUCAUGUCCAGGAGUUUCCUCCUGCUUUCUCAACAGCUCGCAGUCAAG”, for which the binding signal (log2 fold change) was 0.207. The result for “GGUCACGUCUCAAUCAACUCUUAAGAGGGGGGGAAAACCCCUUUACCCUCAACCUCAACAGCUCGCAGUCAAG” reads 0.132. On to “GGUCACGUCUCAAUCAACUCUCAAGAGGGGGGGAAAACCCCUUUACCCUCCAACUCAACAGCUCGCAGUCAAG”, for which the binding signal (log2 fold change) is -0.364.

With “GGUCACGUCUCAAUCAACUCUUUAGAGGGGGGGAAAACCCCUUUGCCCUCACACUCAACAGCUCGCAGUCAAG”, the binding signal (log2 fold change) is -0.119. To “GGUCACGUCUCAAUCAACUCUUCAGAGGGGGGGAAAACCCCUUUGCCCUCAAUUUCAACAGCUCGCAGUCAAG” belongs 0.337; to “GGUCACGUCUCAAUCAACUCAAUCCCCAGGGAAAGCCCUGGCAUUUUCAACAGCUCGCAGUCAAG”, -0.0501; to “GGUCACGUCUCAAUCAACUCUCCCGAGGGGGGGAAAACCCCUUUACCCUCACACUCAACAGCUCGCAGUCAAG”, -0.392. The result for “GGUCACGUCUCAAUCAACUCCCAAGAGGGGGGGAAAACCCCUUUGCCCUCAUUAUCAACAGCUCGCAGUCAAG” reads -0.254; that for “GGUCACGUCUCAAUCAACUCAUAAGAGGGGGGGAAAACCCCUUUACCCUCGGAAUCAACAGCUCGCAGUCAAG”, -0.0551. For “GGUCACGUCUCAAUCAACUCAUCAGAGGGGGGGAAAACCCCUUUACCCUCCCAAUCAACAGCUCGCAGUCAAG”, the binding signal (log2 fold change) was determined as 0.081. On to “GGUCACGUCUCAAUCAACUCAUUCUCAGGAGUUUUCUCCUGUUUAGUCAACAGCUCGCAGUCAAG”, for which the binding signal (log2 fold change) came out at 0.103. The result for “GGUCACGUCUCAAUCAACUCUACUUCAGGAGUUUACUCCUGCUAAUUCAACAGCUCGCAGUCAAG” reads 0.0554. Regarding “GGUCACGUCUCAAUCAACUCUUCCCCCAGGGAAAGCCCUGGUUAUCUCAACAGCUCGCAGUCAAG”, the binding signal (log2 fold change) amounted to 0.0247. Regarding “GGUCACGUCUCAAUCAACUCUUCUUCAGGAGUUUACUCCUGUAAAUUCAACAGCUCGCAGUCAAG”, the binding signal (log2 fold change) turned out to be 0.2.

As for “GGUCACGUCUCAAUCAACUCUUUCUCCAGGGAAAGCCCUGGCAUAUUCAACAGCUCGCAGUCAAG”, the binding signal (log2 fold change) is -0.098. On to “GGUCACGUCUCAAUCAACUCUAUUUCAGGAGUUUUCUCCUGCAUUCUCAACAGCUCGCAGUCAAG”, for which the binding signal (log2 fold change) came to 0.044.

As to “GGUCACGUCUCAAUCAACUCUAUUUCCAGGGAAAACCCUGGCAUAUUCAACAGCUCGCAGUCAAG”, the binding signal (log2 fold change) turned out to be 0.00607. Take “GGUCACGUCUCAAUCAACUCAACUUCCAGGGAAAACCCUGGCUUUCUCAACAGCUCGCAGUCAAG”: the binding signal (log2 fold change) stood at 0.183. For the sequence “GGUCACGUCUCAAUCAACUCUACUUCAGGAGUUUCCUCCUGUUUUUUCAACAGCUCGCAGUCAAG”, the binding signal (log2 fold change) is -0.139. As to “GGUCACGUCUCAAUCAACUCUAGUCCCAGGGAAAGCCCUGGCAAUCUCAACAGCUCGCAGUCAAG”, the binding signal (log2 fold change) was -0.178. Regarding “GGUCACGUCUCAAUCAACUCCCUCGAGGGGGGGAAAACCCCUUUACCCUCCAAAUCAACAGCUCGCAGUCAAG”, the binding signal (log2 fold change) was -0.253. Take “GGUCACGUCUCAAUCAACUCAAGUCCAGGAGUUUUCUCCUGUUAUUUCAACAGCUCGCAGUCAAG”: the binding signal (log2 fold change) is -0.091.

For the sequence “GGUCACGUCUCAAUCAACUCAACUUCAGGAGUUUUCUCCUGUUUACUCAACAGCUCGCAGUCAAG”, the binding signal (log2 fold change) is 0.108. “GGUCACGUCUCAAUCAACUCUUCCUCCAGGGAAAACCCUGGUAAUCUCAACAGCUCGCAGUCAAG”: the binding signal (log2 fold change) is -0.0639.

Regarding “GGUCACGUCUCAAUCAACUCAACUCCCAGGGAAAGCCCUGGCUAUCUCAACAGCUCGCAGUCAAG”, the binding signal (log2 fold change) is -0.000122. To “GGUCACGUCUCAAUCAACUCAAUCCCCAGGGAAAGCCCUGGCAUAUUCAACAGCUCGCAGUCAAG” belongs 0.136. For the sequence “GGUCACGUCUCAAUCAACUCAACUCCCAGGGAAACCCCUGGCUAUCUCAACAGCUCGCAGUCAAG”, the binding signal (log2 fold change) was -0.162.

Consider “GGUCACGUCUCAAUCAACUCUUUCCCCAGGGAAAGCCCUGGCUAUUUCAACAGCUCGCAGUCAAG”, for which the binding signal (log2 fold change) was 0.141. Turning to “GGUCACGUCUCAAUCAACUCUAUCUCCAGGGAAACCCCUGGCAUAUUCAACAGCUCGCAGUCAAG”, the binding signal (log2 fold change) came to 0.0351. Turning to “GGUCACGUCUCAAUCAACUCAUUCCCAGGAGUUUUCUCCUGUUUAGUCAACAGCUCGCAGUCAAG”, the binding signal (log2 fold change) was determined as 0.0948. Take “GGUCACGUCUCAAUCAACUCAACUUCCAGGGAAAUCCCUGGUUUUUUCAACAGCUCGCAGUCAAG”: the binding signal (log2 fold change) came out at 0.104. The result for “GGUCACGUCUCAAUCAACUCAAUAGAGGGGGGGAAAACCCCUUUGCCCUCACCAUCAACAGCUCGCAGUCAAG” reads -0.409; that for “GGUCACGUCUCAAUCAACUCUUCGUCAGGAGUUUACUCCUGUUAUCUCAACAGCUCGCAGUCAAG”, -0.0854; that for “GGUCACGUCUCAAUCAACUCAUUCUCAGGAGUUUGCUCCUGUAAUCUCAACAGCUCGCAGUCAAG”, 0.0493. In the case of “GGUCACGUCUCAAUCAACUCUUCGUCCAGGGAAAUCCCUGGUUUUCUCAACAGCUCGCAGUCAAG”, the binding signal (log2 fold change) was -0.165.

For “GGUCACGUCUCAAUCAACUCAUCUCCCAGGGAAAGCCCUGGUAAUCUCAACAGCUCGCAGUCAAG”, the binding signal (log2 fold change) was 0.221. “GGUCACGUCUCAAUCAACUCUUUCCCCAGGGAAAACCCUGGUUUACUCAACAGCUCGCAGUCAAG”: the binding signal (log2 fold change) was 0.0745. For “GGUCACGUCUCAAUCAACUCCCUAGAGGGGGGGAAAACCCCUUUGCCCUCGAAAUCAACAGCUCGCAGUCAAG”, the binding signal (log2 fold change) is -0.119. Turning to “GGUCACGUCUCAAUCAACUCAUUAGAGGGGGGGAAAACCCCUUUACCCUCACCAUCAACAGCUCGCAGUCAAG”, the binding signal (log2 fold change) is -0.207. Regarding “GGUCACGUCUCAAUCAACUCUCACGAGGGGGGGAAAACCCCUUUACCCUCAAUCUCAACAGCUCGCAGUCAAG”, the binding signal (log2 fold change) worked out at 0.132. The result for “GGUCACGUCUCAAUCAACUCAUCUUCCAGGGAAAUCCCUGGUAUUUUCAACAGCUCGCAGUCAAG” reads 0.046; that for “GGUCACGUCUCAAUCAACUCUUUUCCAGGAGUUUUCUCCUGUUUUGUCAACAGCUCGCAGUCAAG”, -0.0394.

Turning to “GGUCACGUCUCAAUCAACUCUAAAGAGGGGGGGAAAACCCCUUUGCCCUCAUCUUCAACAGCUCGCAGUCAAG”, the binding signal (log2 fold change) was determined as 0.146. As for “GGUCACGUCUCAAUCAACUCUUCGCCAGGAGUUUUCUCCUGUUAUUUCAACAGCUCGCAGUCAAG”, the binding signal (log2 fold change) amounted to 0.0378. Consider “GGUCACGUCUCAAUCAACUCUUCAGAGGGGGGGAAAACCCCUUUGCCCUCCAUUUCAACAGCUCGCAGUCAAG”, for which the binding signal (log2 fold change) amounted to 0.125.

For “GGUCACGUCUCAAUCAACUCAUCGCCCAGGGAAAUCCCUGGUUAUCUCAACAGCUCGCAGUCAAG”, the binding signal (log2 fold change) amounted to 0.0686. For the sequence “GGUCACGUCUCAAUCAACUCAUUUUCCAGGGAAAGCCCUGGCAUUCUCAACAGCUCGCAGUCAAG”, the binding signal (log2 fold change) turned out to be 0.168. To “GGUCACGUCUCAAUCAACUCAGUCCCCAGGGAAAUCCCUGGUUUAUUCAACAGCUCGCAGUCAAG” belongs -0.0387; to “GGUCACGUCUCAAUCAACUCAUCGGAGGGGGGGAAAACCCCUUUACCCUCAUCAUCAACAGCUCGCAGUCAAG”, 0.0875; to “GGUCACGUCUCAAUCAACUCUUUUCCAGGAGUUUUCUCCUGCUAUCUCAACAGCUCGCAGUCAAG”, 0.00242.

In the case of “GGUCACGUCUCAAUCAACUCUAUUCCCAGGGAAACCCCUGGUUAUCUCAACAGCUCGCAGUCAAG”, the binding signal (log2 fold change) turned out to be 0.166.

“GGUCACGUCUCAAUCAACUCAAUUCCCAGGGAAAACCCUGGUAUAUUCAACAGCUCGCAGUCAAG”: the binding signal (log2 fold change) was -0.113. The result for “GGUCACGUCUCAAUCAACUCAAUUUCAGGAGUUUCCUCCUGCUAUGUCAACAGCUCGCAGUCAAG” reads 0.144; that for “GGUCACGUCUCAAUCAACUCACAGGAGGGGGGGAAAACCCCUUUACCCUCAAUUUCAACAGCUCGCAGUCAAG”, -0.207.
